Here are results for 67 compounds from PubChem BioAssay AID1645882 (National Center for Advancing Translational Sciences (NCATS), 2021).

Each structure is given as a SMILES string. Among all 16,000 compounds or so, about 120 (0.75%) were called active. Inconclusive results (about 4%) are left out. The call rests on the fitted dose curve; in most records, active means well fitted inhibition curve with a large enough effect; inconclusive means small, poorly fitted or top-dose-only effect; inactive means no such curve, though single readings can be large or run the other way. Some of the results follow.

The assay deals with Rap guanine nucleotide exchange factor 3 (Homo sapiens) (UniProt O95398). Kind of assay: Validation qHTS for antagonist of cAMP-regulated guanine nucleotide exchange factor 3 (EPAC1).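 Further: plate controls were DMSO for no effect and ATA control for full effect; nearly all actives have a fitted effect of over 75% in size.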 As to conditions: EPAC1 Rap1B-BODIPY-GDP exchange, fluorescence; series mostly up to 150 µM; activity change, negative = inhibition: at the top concentration. The essentials: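 EPAC1 (100 nM) mixed with 250 nM RAP1B-BODIPY-GDP and 50 uM GDP; compounds in concentration series, 5 min at room temperature. Fluorescence (ex 480/em 540 nm) read every 5 min for 30 min; normalized to ATA control and DMSO.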
Sequence of UniProt O95398 (O95398 whole entry, looked up): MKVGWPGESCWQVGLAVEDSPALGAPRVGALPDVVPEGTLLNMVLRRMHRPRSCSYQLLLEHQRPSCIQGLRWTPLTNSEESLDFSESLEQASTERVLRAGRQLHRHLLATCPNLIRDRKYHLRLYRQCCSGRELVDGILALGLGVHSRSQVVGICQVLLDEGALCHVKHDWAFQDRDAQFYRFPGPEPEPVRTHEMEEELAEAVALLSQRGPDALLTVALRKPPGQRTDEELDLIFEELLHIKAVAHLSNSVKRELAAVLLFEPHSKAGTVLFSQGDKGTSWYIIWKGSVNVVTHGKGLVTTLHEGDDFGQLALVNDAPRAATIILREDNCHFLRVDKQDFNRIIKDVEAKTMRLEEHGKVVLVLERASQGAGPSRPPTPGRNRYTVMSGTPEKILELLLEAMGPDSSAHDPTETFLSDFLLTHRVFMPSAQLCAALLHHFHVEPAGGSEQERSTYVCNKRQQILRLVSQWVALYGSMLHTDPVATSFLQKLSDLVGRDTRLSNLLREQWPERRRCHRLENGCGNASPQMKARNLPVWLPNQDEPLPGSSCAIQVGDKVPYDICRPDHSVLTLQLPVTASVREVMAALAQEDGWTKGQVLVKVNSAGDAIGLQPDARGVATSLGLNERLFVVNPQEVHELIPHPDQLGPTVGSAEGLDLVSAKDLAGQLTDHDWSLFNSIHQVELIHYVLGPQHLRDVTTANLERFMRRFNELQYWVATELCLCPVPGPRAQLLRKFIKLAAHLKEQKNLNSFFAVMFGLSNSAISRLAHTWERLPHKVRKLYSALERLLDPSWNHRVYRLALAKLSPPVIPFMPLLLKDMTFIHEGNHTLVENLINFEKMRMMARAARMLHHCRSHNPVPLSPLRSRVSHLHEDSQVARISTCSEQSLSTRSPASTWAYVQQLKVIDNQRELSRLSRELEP
Regarding `Nc1c(Br)cc(Br)cc1CNC1CCC(O)CC1` (configuration not stated), the activity change, negative = inhibition result is “inactive”.
As to `COC(=O)C(N)CS` (configuration not stated), the “activity change, negative = inhibition” value was inactive: 12.3%.
With `CC(=O)OC1CCC2(O)CC1(C)CCC1C2CC1(C)C` (configuration not stated) the figure was inactive: 14.1%; with `Cc1c(C(=O)NCCO)[n+](=O)c2ccccc2n1[O-]`, inactive: 7.03%.
With `COc1ccc(-c2oc3ccccc3c(=O)c2O)cc1` the figure was inactive: 3.28%.
The same measure for `C[C@H]1C[C@@H]2[C@H]([C@@H](O)C[C@@]3(C)[C@H]2CC[C@]3(O)C(=O)COC(=O)CCC(=O)O)[C@@]2(C)C=CC(=O)C=C12`: inactive: 20.1%; for `OCCOCCOCCO`: inactive: 24.2%.
Take `Cc1onc(-c2ccccc2)c1C(=O)NCCN1Cc2ccccc2OC(c2ccsc2)C1` (configuration not stated): the “activity change, negative = inhibition” value is inactive: 14.3%.
With `Nc1cc(-c2ccncc2)c[nH]c1=O` the entry was “inactive”; with `CCOC(=O)c1c(C)n(C)c2ccc(O)cc12`, inactive: 6.13%.
With `O=C(Nc1cccc(F)c1)N1CCCC2(CCNCC2)C1` the figure was inactive: 5.58%; with `CCC(=O)OCC(=O)[C@@]1(OC(=O)CC)[C@H](C)C[C@H]2[C@H]3[C@H]([C@@H](O)C[C@@]21C)[C@@]1(C)C=CC(=O)C=C1C[C@H]3Cl`, inactive: 14.3% [at 75.8 µM]; with `CC(C)CN1CCC2(CC1)CCN(C(=O)c1cccn1C)CC2`, inactive: 16.1%.
With `c1ccc2nc(C3=NCCN3)cnc2c1` the figure was inactive: -11%.
`O=C(Cc1c[nH]c2ccccc12)N1CCC(n2c(C3CCCO3)nc3cc(C(F)(F)F)ccc32)CC1` (configuration not stated): the “activity change, negative = inhibition” value was inactive: -11.3%.
Consider `CCOC(=O)C[C@H]1c2cc(C(F)(F)F)ccc2S(=O)(=O)N1Cc1ccccc1`, for which the “activity change, negative = inhibition” value is inactive: -15.9%.
With `CN1CCN(CCC(=O)N2c3ccccc3Sc3ccc(C(F)(F)F)cc32)CC1` the figure was inactive: 16.5%; with `O=C(O)c1cc(=O)c2ccc(Cl)cc2[nH]1`, “inactive”; with `O=C(Nc1ccccc1)[C@@H]1CC=C[C@@H]2CCN(C3CCCCC3)C(=O)[C@@H]21`, inactive: 17.4%.
The same measure for `O=C(CC(=O)c1ccccc1)c1ccccc1`: inactive: -16.5%; for `COc1ccc(-n2c(=O)c(C)nc3cncnc32)cc1`: inactive: 8.58%; for `Cc1ncc2c(c1CNC(=O)c1ccc3c(c1)OCO3)CCN(C(=O)c1ccc3ccccc3c1)C2`: inactive: -5.93%.
The same measure for `O=C1N[C@@H](Cc2c[nH]c3ccccc23)C(=O)N[C@H]1Cc1c[nH]c2ccccc12`: inactive: -11.2%; for `C[C@@H]1O[C@@H](OC[C@H]2O[C@@H](Oc3c(-c4cccc(O)c4O)oc4cc(O)cc(O)c4c3=O)[C@H](O)[C@@H](O)[C@@H]2O)[C@H](O)[C@H](O)[C@H]1O`: inactive: 9.86%.
Turning to `CN(C)CC[C@@H](c1ccc(Cl)cc1)c1ccccn1`, the activity change, negative = inhibition result is “inactive”.
The same measure for `CC(=O)OCC(=O)[C@@]1(O)CCC2C3CCC4=CC(=O)CC[C@]4(C)C3[C@@H](O)C[C@@]21C` (some centres not stated): inactive: 27.2%; for `COC(=O)C1CCN(Cc2ccc3c(c2)CN(C(=O)c2ccnn2C)CCO3)CC1`: inactive: 5.49%.
Take `COc1ccc(C(C)=O)cc1`: the “activity change, negative = inhibition” value is inactive: 18.3%.
In the case of `N#Cc1ccc(CN2CCC3(CC2)CCN(C(=O)c2ccco2)CC3)cc1`, the “activity change, negative = inhibition” value is inactive: 21.2%.
With `Cc1ccc2c(Cl)cc(Cl)c(O)c2n1` the entry was “inactive”.
The same measure for `COc1ccccc1CNc1cc(-c2ccoc2)ncn1`: inactive: 6.79%; for `COc1ccc2[nH]cc(CCNc3nc(-c4ccc(N(C)C)cc4)nc4ccccc34)c2c1`: inactive: -19.2%.
The same measure for `CC(C)C[C@@H](CO)N1CCN(Cc2ccc(Br)cc2)CCC1=O`: inactive: 13.7%.
In the case of `C=C1CCC(OC(C)=O)/C(C)=C/CC2[C@H]1CC2(C)C` (some centres not stated), the “activity change, negative = inhibition” value was inactive: 4.9%.
The same measure for `CN(C)CC/C=C1/c2ccccc2CSc2ccccc21`: inactive: -7.96% [at 75.8 µM].
In the case of `N[C@H](C(=O)O)[C@H](OCc1ccccc1)C(=O)O`, the “activity change, negative = inhibition” value is inactive: 4.05%.
The same measure for `COc1ccc2c(c1)CCc1cnc(-n3ncc(C(=O)NCC(C)(C)CN(C)C)c3C)nc1-2`: inactive: -15.2%; for `COc1ccc(SCCN2CC[C@@H](NC(=O)OCc3ccccc3)CCC2=O)cc1`: inactive: 3.6%.
With `CN(C)C(=O)c1ccc(-c2nccc(-n3ccnc3)n2)cc1` the figure was inactive: 18.7%.
The same measure for `OC(CCN1CCCCC1)(c1ccccc1)C1CCCCC1` (configuration not stated): “inactive”.
`CCNc1ncc2nc(-c3cc(F)cc(F)c3)c(=O)n(Cc3cccs3)c2n1`: the “activity change, negative = inhibition” value is inactive: 27.4%.
The same measure for `COCc1c(C(=O)N2CCN(C)CC2)cnn1-c1ncc2c(n1)-c1ccccc1CCC2`: inactive: 10.1%; for `Cc1ncc2c(c1CNC(=O)c1cncs1)CCN(C(=O)c1cc(F)c(F)cc1F)C2`: inactive: 5.25%.
With `COc1ccc(-n2c(=O)c(CCc3ccccc3)nc3cncnc32)cc1` the figure was inactive: -5.37%.
With `CC(=O)Nc1cc(C(=O)N2CC3(C)CC2CC(C)(C)C3)cc2ncn(CCc3ccccn3)c12` (configuration not stated), the “activity change, negative = inhibition” value was inactive: 13.5%.
With `COc1ccc(C[C@H](C)NC[C@@H](O)c2ccc(O)c(NC=O)c2)cc1`, the “activity change, negative = inhibition” value is inactive: -8.27%.
Consider `COc1ccc(CCNc2ncnc3sc(C(=O)N(C)C)c(C)c23)cc1OC`, for which the “activity change, negative = inhibition” value was inactive: 18.5%.
Turning to `O=C(OCc1ccccc1)c1ccccc1`, the activity change, negative = inhibition entry was “inactive”.
With `CS(=O)(=O)N1CCC2(CCN(C(=O)Nc3cccc(F)c3)CC2)CC1` the figure was inactive: 12.8%; with `N#Cc1cccc(NC(=O)N2CC[C@@]3(CCCN(C(=O)c4ccco4)C3)C2)c1`, inactive: 14.8%; with `Cc1csc(-c2coc3cc(O[C@@H]4O[C@H](CO)[C@@H](O)[C@@H](O)[C@H]4O)ccc3c2=O)n1`, inactive: 5.97%.
The same measure for `CN(C)c1ccc(-c2ccc3ncnc(N(C)C)c3c2)cc1`: inactive: -4.39%.
The same measure for `CN(C)CCOC(=O)COc1ccc(Cl)cc1`: “inactive”.
For the compound `CCOC(=O)c1cccnc1`, the “activity change, negative = inhibition” value is inactive: 9.46%.
On to `Brc1c(NC2=NCCN2)ccc2nccnc12`, for which the activity change, negative = inhibition result is “inactive”.
As to `O=S(=O)(c1ccccc1)N1CCC[C@@]2(CCN(Cc3nccs3)C2)C1`, the “activity change, negative = inhibition” value was inactive: 13.2%.
The same measure for `O=S1(=O)CCOCCCN1Cc1ccccc1F`: inactive: 5.74%; for `O=C1CC(c2ccc(O)cc2)Oc2ccccc21` (configuration not stated): inactive: 11.1%; for `O=C(C[n+]1cccc2cccc(O)c21)c1ccc(Cl)cc1`: inactive: 20.4%.
With `COc1cc(CNCc2cc3ccc(F)cc3nc2N2CCOCC2)cc(OC)c1OC` the figure was inactive: 20%; with `O=C(NC1CCC(n2cc(C(=O)NC3CC3)nn2)CC1)C(=O)c1ccccc1` (configuration not stated), inactive: 12.1%; with `C#Cc1cccc(Nc2ncnc3cc(OC)c(OC)cc23)c1`, inactive: 11%.
The same measure for `C[C@H](N=C(NC#N)Nc1ccncc1)C(C)(C)C`: inactive: -10.6%.
As for `CN1C[C@H](C(=O)N[C@@]2(C)O[C@@]3(O)C4CCCN4C(=O)C(Cc4ccccc4)N3C2=O)C[C@H]2c3cccc4[nH]cc(c34)C[C@H]21` (some centres not stated), the “activity change, negative = inhibition” value was inactive: 11.3%.
The same measure for `CCC(C)[C@H]1COCCS(=O)(=O)N1Cc1ccccc1F` (some centres not stated): inactive: 0.167%; for `O=C(c1cccc(F)c1)N1CCC[C@@]2(CCN(C(c3ccccc3)c3ccccc3)C2)C1`: inactive: -3.86%.
As to `O=C(C[N+]12CCCc3cccc(c31)CCC2)c1ccc(Cl)c2ccccc12`, the “activity change, negative = inhibition” value was inactive: -20.4%.
